{"source": "PubChem BioAssay AID588795", "about": "(National Center for Advancing Translational Sciences (NCATS), 2011)", "note": "Out of some 390,000 compounds screened, about 1,400 (0.36%) were called active. This list was built around the results that the source calls inconclusive (neither active nor inactive); the mix of calls is not that of the screen. Calls follow the shape of the dose curve; as a rule, active = well fitted inhibition curve with a large enough effect; inconclusive = small, poorly fitted or top-dose-only effect; inactive = no such curve, though single readings can be large or run the other way. Potencies of inconclusive entries are doubtful fits and often do not repeat. % is scaled to controls: 0 for no effect and ±100 for the full control effect; potency is read from the fitted curve at half-maximal effect; tags tell the direction and shape of the fitted curve.", "data": [{"target": "Flap endonuclease 1 (Homo sapiens) (UniProt P39748)", "sequence (P39748 whole entry, looked up)": "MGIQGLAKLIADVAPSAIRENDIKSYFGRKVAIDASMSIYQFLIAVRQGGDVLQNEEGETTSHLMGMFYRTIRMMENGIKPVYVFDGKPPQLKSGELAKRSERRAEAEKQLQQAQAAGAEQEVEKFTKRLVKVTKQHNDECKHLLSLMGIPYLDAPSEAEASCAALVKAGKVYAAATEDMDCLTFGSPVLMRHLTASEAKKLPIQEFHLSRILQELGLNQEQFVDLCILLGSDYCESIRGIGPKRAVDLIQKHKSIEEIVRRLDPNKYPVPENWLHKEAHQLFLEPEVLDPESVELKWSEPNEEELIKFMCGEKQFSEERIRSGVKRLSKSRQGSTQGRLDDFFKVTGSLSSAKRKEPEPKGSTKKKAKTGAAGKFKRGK", "assay": "qHTS Assay for the Inhibitors of Human Flap endonuclease 1 (FEN1); also: nearly all actives have a fitted effect of over 65% in size.", "conditions": "Recombinant FEN1 flap cleavage, fluorescence, 15 min; series mostly up to 114 µM; activity change, negative = inhibition: at the top concentration", "how_it_was_run": "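Potency values derive from four-parameter Hill fits of normalized qHTS data. The reaction used 10 nM FEN1 preincubated 15 min at room temperature with compound, then 50 nM DNA substrate, read at 0 and 15 min.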", "values": [{"smiles": "COC(=O)c1ccc(N2CCCCC2)c(NS(=O)(=O)c2ccc(C)cc2)c1", "Potency": "inconclusive: 100 µM [inhibitor, partial curve, poor fit]"}, {"smiles": "N#Cc1c2ccc(OCC(N)=O)cc2n2ccccc12", "Potency": "inconclusive: 70.8 µM [inhibitor, single point]"}, {"smiles": "O=C(Nc1cc(-c2nc3ccccc3o2)ccc1Cl)c1sc2c([N+](=O)[O-])cccc2c1Cl", "activity change, negative = inhibition": "inactive: -2.9%"}, {"smiles": "Cc1ccc2nc(-c3ccc(NC(=O)CSc4nccc(=O)[nH]4)cc3)sc2c1", "Potency": "inconclusive: 79.4 µM [inhibitor, partial curve, poor fit]"}, {"smiles": "O=Nc1c(-c2c(O)[nH]c3ccccc23)[nH]c2ccccc12", "Potency": "inconclusive: 26.7 µM [inhibitor, single point]"}, {"smiles": "Cc1ccc(C(C)C)c(OCCSc2nc(-c3ccccc3F)nc3cc(=O)[nH]n23)c1", "Potency": "inconclusive: 70.8 µM [inhibitor, partial curve, poor fit]"}, {"smiles": "Cn1c(=O)c(Sc2ccccc2)c(O)c2ccccc21", "Potency": "inconclusive: 22.4 µM [inhibitor, partial curve, poor fit]"}, {"smiles": "Cc1ccccc1-c1noc(-c2ccc(N3CCCCC3)c([N+](=O)[O-])c2)n1", "activity change, negative = inhibition": "inactive: 11.3%"}, {"smiles": "CCOC(=O)c1ccc(N2C(=O)c3n[nH]c(-c4cccs4)c3C2c2ccc(OCC)cc2)cc1", "note": "(configuration not stated)", "Potency": "inconclusive: 70.8 µM [inhibitor, partial curve, poor fit]"}, {"smiles": "Cc1ccc(C)c2sc(NC(=O)c3ccc(S(=O)(=O)N4CCC(C)CC4)cc3)nc12", "activity change, negative = inhibition": "inactive: 13.3%"}, {"smiles": "COC(=O)C1=C(O)/C(=C\\c2ccc(O)c(OC)c2)N=C1C", "Potency": "inconclusive: 89.1 µM [inhibitor, partial curve, poor fit]"}, {"smiles": "COc1ccc(NC(=O)c2cc3ccccc3cc2OC)cc1OC", "activity change, negative = inhibition": "inactive: -25.7%"}, {"smiles": "COc1cc2nc(N3CCCN(C)CC3)nc(NC3CCCCC3)c2cc1OC", "Potency": "inconclusive: 28.2 µM [inhibitor, partial curve]"}, {"smiles": "CCN1CCN(C(=O)c2cc(-c3ccc(Cl)s3)nc3ccccc23)CC1", "activity change, negative = inhibition": "inactive: -11.3%"}, {"smiles": "COc1ccc(OC)c(N2C(=O)[C@@H]3C(c4ccccc4Cl)=NO[C@@H]3C2=O)c1", "Potency": "active: 50.1 µM"}, {"smiles": "O=C(O)C(c1ccccc1)N1C(=O)/C(=C\\c2ccc(-c3ccccc3Cl)o2)SC1=S", "note": "(configuration not stated)", "Potency": "active: 50.1 µM"}, {"smiles": "COC(=O)C1=C(O)/C(=C\\c2cc(C)n(-c3ccccc3F)c2C)N=C1C", "Potency": "inconclusive: 89.1 µM [inhibitor, partial curve, poor fit]"}, {"smiles": "CCc1ccc(NC(=O)CC2C(=O)N(c3cccc(C)c3)C(=O)N2Cc2ccc(F)cc2)cc1", "note": "(configuration not stated)", "Potency": "inconclusive: 50.1 µM [inhibitor, partial curve, poor fit]"}, {"smiles": "CCOC(=O)c1cnc2cc(-c3ccc(OCC)cc3)nn2c1-c1ccccc1", "activity change, negative = inhibition": "inactive: 1.2%"}, {"smiles": "CC(=O)c1ccc(NC(=S)NC(=O)/C=C/c2ccccc2)cc1", "activity change, negative = inhibition": "inactive: -2.37%"}, {"smiles": "CCOc1ccc(N2CC(C(=O)Nc3c(C)n(C)n(-c4ccccc4)c3=O)CC2=O)cc1", "note": "(configuration not stated)", "activity change, negative = inhibition": "inactive: 4.99%"}, {"smiles": "CN(C)CCNC(=O)c1sc2nc(-c3ccccc3)cc(C(F)(F)F)c2c1N", "Potency": "inconclusive: 50.1 µM [inhibitor, partial curve]"}, {"smiles": "CC(=O)Nc1cccc(NC(=O)c2cc3c(=O)n4cccc(C)c4nc3n2C)c1", "activity change, negative = inhibition": "inactive: 23.4%"}, {"smiles": "CCCCCC(O)(c1ccc(OC)cc1)C(CN1CCOCC1)c1ccccc1", "note": "(configuration not stated)", "Potency": "inconclusive: 89.1 µM [inhibitor, partial curve, poor fit]"}, {"smiles": "CN(C)c1ccc(/C=C2/C[N+](C)(C)C/C(=C/c3ccc(N(C)C)cc3)C2=O)cc1", "Potency": "inconclusive: 50.1 µM [inhibitor, partial curve]"}, {"smiles": "Cc1cc(OC(C)C(=O)NCC2CCC(C(=O)O)CC2)c2c(C)c(Cc3ccccc3)c(=O)oc2c1", "note": "(configuration not stated)", "Potency": "inconclusive: 50.1 µM [inhibitor, partial curve, poor fit]"}, {"smiles": "CC(C)(O)C#Cc1ccc(CN2CCCC(CO)(Cc3cccc(Cl)c3)C2)cc1", "note": "(configuration not stated)", "activity change, negative = inhibition": "inactive: -7.72%"}, {"smiles": "Cc1ccc(CNC(=O)c2ccc([N+](=O)[O-])o2)cc1", "Potency": "inconclusive: 89.1 µM [inhibitor, partial curve, poor fit]"}, {"smiles": "N=C1/C(=C/c2ccc(-c3cccc(C(=O)O)c3)o2)C(=O)N=C2SC(CC(=O)N3CCOCC3)=NN12", "Potency": "active: 35.5 µM"}, {"smiles": "O=C1c2cc(O)cc(O)c2C(=O)c2c1cc(O)c([C@@H](CO)CCO)c2O", "Potency": "inconclusive: 50.1 µM [inhibitor, partial curve]"}, {"smiles": "C=CCc1cccc(/C=N/NC(=O)CNc2cccc3ccccc23)c1O", "Potency": "inconclusive: 70.8 µM [inhibitor, partial curve, poor fit]"}, {"smiles": "O=C(O)CCCNc1cc(N2CCN(C(=O)c3ccco3)CC2)c2noc3c2c1C(=O)c1ccccc1-3", "Potency": "inconclusive: 56.2 µM [inhibitor, partial curve]"}, {"smiles": "O=c1c(O)cccc2cc(O)c(O)c(O)c12", "Potency": "inconclusive: 1.58 µM [inhibitor, full curve, poor fit]"}, {"smiles": "CSc1nn(Cc2ccc(C)cc2)c(N)c1S(=O)(=O)c1ccccc1", "Potency": "inconclusive: 44.7 µM [inhibitor, partial curve, poor fit]"}, {"smiles": "C/C(=N/NC(=O)CNC(=O)c1cccnc1)c1ccc(Cl)c(Cl)c1", "activity change, negative = inhibition": "inactive: -1.87%"}, {"smiles": "COCCNC(=O)Nc1ccc2nc(-c3ccco3)c(-c3ccco3)nc2c1", "Potency": "active: 11.2 µM"}, {"smiles": "Cc1nc(S/C(C(=O)O)=C2/C(=O)Nc3ccccc32)n[nH]1", "Potency": "inconclusive: 89.1 µM [inhibitor, partial curve, poor fit]"}, {"smiles": "Cc1ccc(NC(=O)CSc2nc(O)cc(=O)n2C)cc1", "Potency": "inconclusive: 89.1 µM [inhibitor, single point]"}, {"smiles": "Cc1ccc[n+](CC(=O)Nc2ccc(C)c(C)c2)c1", "activity change, negative = inhibition": "inactive: -4.92%"}, {"smiles": "CC(=O)c1ccc(N2C(=O)C3C(C2=O)C(C(=O)c2ccc(Cl)cc2)N2CCCC32)cc1", "note": "(configuration not stated)", "activity change, negative = inhibition": "inactive: 1.49%"}, {"smiles": "Cc1cccc(OCC(=O)Nc2nnc(S(=O)(=O)N3CCc4ccccc43)s2)c1", "activity change, negative = inhibition": "inactive: 1.37%"}, {"smiles": "COc1cc(/C=C2\\SC(=O)NC2=O)ccc1Oc1ccc([N+](=O)[O-])cc1[N+](=O)[O-]", "Potency": "inconclusive: 56.2 µM [inhibitor, partial curve, poor fit]"}]}]}
